Test results taken from PubChem BioAssay AID485281 (National Center for Advancing Translational Sciences (NCATS), 2010).
About 260 (0.074%) of roughly 350,000 compounds were called active. The shares of active, inactive and inconclusive entries below differ from those in the screen. Calls come from the whole dose curve; as a rule, active = well fitted inhibition curve with a large enough effect; inconclusive = small, poorly fitted or top-dose-only effect; inactive = no such curve, though single readings can be large or run the other way. A potency beside an inconclusive call is a rough fit, not a confirmed value.

The molecules below were run against Ferritin light chain (Equus caballus) (UniProt P02791) (assay: qHTS Assay for Identification of Novel General Anesthetics). Details: apoferritin/1-aminoanthracene competitive binding, fluorescence; activity change, negative = displacement: at 77.5 µM (top of the series).
Method in brief: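 Horse-spleen apoferritin (10 uM) in 50% saturated 1-aminoanthracene in PBS was incubated 10 min at room temperature with compound. Fluorescence (ex 380, em 535 nm) was normalized to free and bound 1-AMA, with concentration-response fitted by a four-parameter Hill equation.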
% is set by controls: 0 for no effect and ±100 for the full control effect; potency is the fitted concentration of half-maximal effect; tags give direction and shape of the fitted curve.
Note: nearly all actives have a fitted effect of over 20% in size.

Sequence of UniProt P02791 (P02791 whole entry, looked up): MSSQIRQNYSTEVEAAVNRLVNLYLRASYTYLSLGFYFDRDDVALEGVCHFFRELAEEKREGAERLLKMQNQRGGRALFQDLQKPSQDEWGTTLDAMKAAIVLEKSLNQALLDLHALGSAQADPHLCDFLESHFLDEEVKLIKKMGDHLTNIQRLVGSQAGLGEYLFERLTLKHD

Activity change, negative = displacement, inactive:
CN1CCN(C(=O)c2ccc3c(c2)N(Cc2ccc(Cl)cc2)C(=O)c2ccccc2S3(=O)=O)CC1 -9.56%, COc1ccc(-c2noc(CCC(=O)NCCCN3CCC(Cc4ccccc4)CC3)n2)cc1 -10.5%, CCOC(=O)Cn1c(-c2cccs2)cc2cc(Cl)ccc21 44.4%, CCOC(=O)c1c(NC(=O)c2ccn(CC)n2)sc2c1CCCC2 -11.3%, Cc1cc2n(n1)C(c1c[nH]c3ccccc13)Nc1ccccc1-2 (configuration not stated) -7.2%, Cc1cc(NC(=O)CSc2nc(-c3cccc(F)c3)nc3c2c(=O)n(C)c(=O)n3C)no1 -6.2%, CCOC(=O)N1CCN(CCC(=O)c2ccc(Cl)cc2)CC1 12.8%, COc1ccccc1NC(=O)Nc1ccc2c(c1)CCC2 0.416%, CCc1cc2c(=O)[nH]c(N3CCCC3)nc2s1 -4.8%, Cc1cc(C)c2c(CN3CCN(Cc4ccccc4)CC3)cc(=O)oc2c1 -14.4%, COc1ccc(NC(=O)c2cn(-c3ccccc3)nc2-c2ccncc2)cc1 -15.4%, Cc1cc(C)n(S(=O)(=O)c2ccc3oc(=O)ccc3c2)n1 -4.33%, CCSc1nc2ccccc2n1CC(=O)OC -5.48%, Cc1cc[n+](-c2nc3ccccc3nc2[N-]S(=O)(=O)c2ccccc2)cc1 -4.74%, CC(C)C(=O)NC(=S)/C=C1/N(C)c2ccccc2C1(C)C -8.65%, COc1cc(/C=C(\C#N)c2nc3ccccc3s2)cc([N+](=O)[O-])c1O -11.7%, C[C@@H]1[C@H](C)CC[C@@]2(C(=O)O)CC[C@]3(C)C(=CC[C@H]4[C@@]5(C)CC[C@@H](O)C(C)(C)[C@@H]5CC[C@@]43C)[C@@H]12 -13.5% [at 29.3 µM], CCN(/N=C/c1cccs1)c1cc(=O)n(C)c(=O)[nH]1 -13.6%, COc1cc(-c2nnc3sc(C4CCCCC4)nn23)cc(OC)c1OC -8.72%

Potency, inconclusive:
CSCCC(NS(=O)(=O)c1ccc(Cl)cc1)C(=O)OCC(=O)NC12CC3CC(CC(C3)C1)C2 (configuration not stated) 7.08 µM [inhibitor, single point], Cc1nnc(SCC(=O)c2ccc(C(C)C)cc2)s1 17.8 µM [inhibitor, partial curve], CC/C(=N\NC(=O)CSCc1ccccc1Cl)c1ccc2c(c1)OCCO2 14.1 µM [inhibitor, partial curve], CCCCCCCCc1nc(=S)[nH][nH]1 28.2 µM [inhibitor, partial curve, poor fit], Cc1ccc(S(=O)(=O)Nc2ccc(NC(=O)CN3CCCCC3)cc2)cc1 44.7 µM [inhibitor, single point], O=C1c2ccccc2C(Nc2ccc(S(=O)(=O)N3CCCCC3)cc2)N1Cc1ccco1 (configuration not stated) 3.55 µM [inhibitor, partial curve], CCc1cccc2c(-c3csc(=NC)n3C)c[nH]c12 22.4 µM [inhibitor, partial curve], CCCCN(Cc1ccco1)S(=O)(=O)c1ccc(-c2ccc(=O)[nH]n2)s1 31.6 µM [inhibitor, partial curve], CCOC(=O)C1CCN(CC(O)COc2ccc(C(C)(C)CC)cc2)CC1 (configuration not stated) 28.2 µM [inhibitor, partial curve], O=C(CCC(=O)N1CCN(c2ccc(F)cc2)CC1)c1ccc(Cl)cc1 31.6 µM [inhibitor, partial curve], COc1ccc(C2=NOC(C(=O)N(C)Cc3ccccc3)C2)cc1 (configuration not stated) 22.4 µM [inhibitor, partial curve], O=C(Nc1ccccc1N1CCCCC1)c1cnccn1 35.5 µM [inhibitor, partial curve], CC1CCN(S(=O)(=O)c2cccc(S(=O)(=O)N3CCOCC3)c2)CC1 28.2 µM [inhibitor, single point], COc1ccc(N(C(=O)c2cccc(C)c2)S(=O)(=O)c2ccc3c(c2)n(C)c(=O)n3C)cc1 31.6 µM [inhibitor, partial curve], CC(=O)Nc1ccc(S(=O)(=O)NCC(=O)OCC(=O)NC23CC4CC(CC(C4)C2)C3)cc1 44.7 µM [inhibitor, single point], Cc1ccc(OCc2nnc(SCC(=O)c3ccccc3)n2Cc2ccco2)cc1 31.6 µM [inhibitor, partial curve], O=C(NC1CCCCC1)c1ccc(-c2ccccc2[N+](=O)[O-])o1 35.5 µM [inhibitor, partial curve], Cc1nn(Cc2ccc(Cl)cc2)c(C)c1NC(=O)c1cc(-c2ccco2)on1 31.6 µM [inhibitor, partial curve], CSc1nc(N)nc(SCC(=O)C23CC4CC(CC(C4)C2)C3)c1C#N 8.91 µM [inhibitor, partial curve], CCc1ccc(NC(=O)CN2C(=O)C3CCCN3c3ccc(S(=O)(=O)N(CC)CC)cc32)cc1 (configuration not stated) 10 µM [inhibitor, partial curve], CN(C)S(=O)(=O)c1ccc(C(=O)NNC(=O)C2COc3ccccc3O2)cc1 (configuration not stated) 100 µM [inhibitor, partial curve], O=C(COC(=O)c1cc(-c2cccc(Br)c2)nc2ccccc12)NCC1CCCO1 (configuration not stated) 28.2 µM [inhibitor, single point], COc1cc(/C=N/NC(=Nc2ccc(C)cc2)c2nc3ccccc3s2)ccc1O 8.91 µM [inhibitor, partial curve], CCc1ccc(NC(=O)Cn2c(=O)n(CCCC(=O)NCc3ccccc3Cl)c(=O)c3ccccc32)cc1 100 µM [inhibitor, partial curve, poor fit], COc1ccc2c(Sc3ccc(C)cc3)c(C(=O)NCC(C)c3ccccc3)[nH]c2c1 (configuration not stated) 15.8 µM [inhibitor, partial curve], CCc1c(C(=O)NNC(=O)Nc2ccc3c(c2)OCO3)csc1C 39.8 µM [inhibitor, single point], Cc1cc(OC(C)C(=O)NNC(=O)Nc2ccc(F)cc2F)cc(C)c1Cl (configuration not stated) 14.1 µM [inhibitor, partial curve], CCCCc1c(C)c(C#N)c2nc3ccccc3n2c1Nc1c(C)n(C)n(-c2ccccc2)c1=O 4.47 µM [inhibitor, full curve], O=c1cc(-c2ccccc2)c2c([nH]1)CCCC2 39.8 µM [inhibitor, partial curve], CCNC(=S)N(Cc1ccco1)Cc1cc2cc(OCC)ccc2[nH]c1=O 15.8 µM [inhibitor, partial curve], O=C(CSc1nnc(-c2cccs2)n1CC1CCCO1)c1cc2ccccc2o1 (configuration not stated) 25.1 µM [inhibitor, partial curve], CC(C)(C)CC(=O)OCC(=O)Nc1cc(C(C)(C)C)nn1-c1ccccc1 28.2 µM [inhibitor, partial curve], CCOc1ccc(OCCSc2nc3ccccc3[nH]2)cc1 0.794 µM [inhibitor, full curve, poor fit], CCOC(=O)c1cc(-c2ccc(N3CCOCC3)cc2)nn1-c1ccccc1 39.8 µM [inhibitor, partial curve], CN1C(=S)SC(C)(C)C1NO (configuration not stated) 31.6 µM [inhibitor, partial curve], COC(=O)c1sccc1S(=O)(=O)N(CC(=O)Nc1ccccc1C)c1ccc(Cl)cc1 11.2 µM [inhibitor, partial curve], CCn1nnc(NC(=O)COc2ccc(C3CCCCC3)cc2)n1 44.7 µM [inhibitor, partial curve], CC(C/C=N/NC(=O)COc1cc(Cl)ccc1Cl)c1ccccc1 (configuration not stated) 28.2 µM [inhibitor, partial curve], COCCCN1C(=O)c2[nH]nc(-c3cc(C)ccc3O)c2C1c1ccc(F)cc1 (configuration not stated) 31.6 µM [inhibitor, partial curve], Cc1ccc(OCc2ccccc2C)c([N+](=O)[O-])n1 25.1 µM [inhibitor, partial curve], O=C(c1ccco1)n1nc(-c2ccco2)nc1SCc1ccccc1 28.2 µM [inhibitor, partial curve], COc1cc(/C=N/NC(=O)CNC(=O)c2ccc3c(c2)OCCO3)ccc1O 28.2 µM [inhibitor, partial curve], CCOC(=O)c1nc(Nc2ccc(Nc3ccccc3)cc2)c2ccccc2n1 7.08 µM [inhibitor, full curve, poor fit], COc1ccc(-n2nc(C(=O)NCC(=O)N3CCN(c4ccccn4)CC3)c3ccccc3c2=O)cc1OC 20 µM [inhibitor, partial curve], O=C(NC(=S)Nc1cccc(C(F)(F)F)c1)c1csnn1 39.8 µM [inhibitor, partial curve], CCOC(=O)c1sc2nc(CC(=O)OC)nc(N3CCN(c4ccc(OC)cc4)CC3)c2c1C 15.8 µM [inhibitor, partial curve], Cc1nc2cc(NCc3nc4ccccc4n3Cc3ccccc3)ccc2n1C 20 µM [inhibitor, partial curve]

Potency, inactive:
Cc1cccc(OCC(=O)Nc2ccc(S(=O)(=O)Nc3onc(C)c3C)cc2)c1C
